Our source for the binding values is article PMC10516938, “Conformational dynamics of cohesin/Scc2 loading complex are regulated by Smc3 acetylation and ATP binding” (Nature Communications, 2023).

Changes are numbered by the printed parent chain. These are yes or no findings as the source states them, for the method shown. For part of these data: Binding seen in cells or lysates may run through a third protein. Some binding calls cover weakened binding; strength is not graded here.

Experiment [1] concerns the target T1, Smc3^QQ (S. cerevisiae) (UniProt P47037).
T1 sequence: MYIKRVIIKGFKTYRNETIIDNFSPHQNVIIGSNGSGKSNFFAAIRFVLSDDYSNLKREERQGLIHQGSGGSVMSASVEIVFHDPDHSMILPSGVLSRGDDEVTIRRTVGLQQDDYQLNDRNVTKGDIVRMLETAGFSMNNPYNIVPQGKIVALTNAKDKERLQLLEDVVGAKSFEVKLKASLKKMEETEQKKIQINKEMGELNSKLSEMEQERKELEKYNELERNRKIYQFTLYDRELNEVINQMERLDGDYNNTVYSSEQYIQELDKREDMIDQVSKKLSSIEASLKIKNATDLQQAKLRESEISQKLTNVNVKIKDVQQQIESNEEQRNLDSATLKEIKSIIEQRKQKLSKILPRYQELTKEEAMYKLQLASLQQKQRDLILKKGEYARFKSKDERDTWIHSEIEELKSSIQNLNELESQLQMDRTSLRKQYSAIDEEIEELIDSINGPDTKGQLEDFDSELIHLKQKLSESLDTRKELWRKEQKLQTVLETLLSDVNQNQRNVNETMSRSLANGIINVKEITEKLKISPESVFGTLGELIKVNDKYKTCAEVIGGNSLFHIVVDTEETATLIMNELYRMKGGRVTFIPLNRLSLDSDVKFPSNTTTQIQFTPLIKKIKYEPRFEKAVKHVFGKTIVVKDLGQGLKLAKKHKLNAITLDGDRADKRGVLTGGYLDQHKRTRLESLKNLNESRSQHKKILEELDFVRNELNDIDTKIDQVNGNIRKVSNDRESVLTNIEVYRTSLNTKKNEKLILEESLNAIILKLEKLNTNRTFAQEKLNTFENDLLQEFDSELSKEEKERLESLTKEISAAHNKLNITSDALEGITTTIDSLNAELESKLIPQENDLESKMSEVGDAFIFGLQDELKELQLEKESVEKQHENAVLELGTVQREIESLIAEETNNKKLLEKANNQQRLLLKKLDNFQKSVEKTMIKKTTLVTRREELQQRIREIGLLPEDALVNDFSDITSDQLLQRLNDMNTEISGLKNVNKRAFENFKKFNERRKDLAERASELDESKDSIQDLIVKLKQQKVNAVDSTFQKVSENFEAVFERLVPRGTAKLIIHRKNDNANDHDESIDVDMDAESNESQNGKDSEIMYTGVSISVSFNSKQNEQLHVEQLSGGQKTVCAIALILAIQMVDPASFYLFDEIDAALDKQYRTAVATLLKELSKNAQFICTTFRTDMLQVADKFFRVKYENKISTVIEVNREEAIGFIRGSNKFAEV
The experiment can be described thus: co-IP; co-immunoprecipitation of Scc2 with Smc3 or Smc3^QQ from exponentially grown yeast cells; lysis buffer 0.05 M Tris pH 7.5, 0.15 M NaCl, 5 mM EDTA, 0.5% NP-40.

The target of experiment [2] is T2, Smc3 (wild type) (S. cerevisiae) (UniProt P47037).
T2 sequence: T1 sequence with Q112K, Q113K
Described as above.

For experiment [3], the target named is T3, recombinant Scc1-2xStrepII (S. cerevisiae) (UniProt Q12158).
T3 sequence: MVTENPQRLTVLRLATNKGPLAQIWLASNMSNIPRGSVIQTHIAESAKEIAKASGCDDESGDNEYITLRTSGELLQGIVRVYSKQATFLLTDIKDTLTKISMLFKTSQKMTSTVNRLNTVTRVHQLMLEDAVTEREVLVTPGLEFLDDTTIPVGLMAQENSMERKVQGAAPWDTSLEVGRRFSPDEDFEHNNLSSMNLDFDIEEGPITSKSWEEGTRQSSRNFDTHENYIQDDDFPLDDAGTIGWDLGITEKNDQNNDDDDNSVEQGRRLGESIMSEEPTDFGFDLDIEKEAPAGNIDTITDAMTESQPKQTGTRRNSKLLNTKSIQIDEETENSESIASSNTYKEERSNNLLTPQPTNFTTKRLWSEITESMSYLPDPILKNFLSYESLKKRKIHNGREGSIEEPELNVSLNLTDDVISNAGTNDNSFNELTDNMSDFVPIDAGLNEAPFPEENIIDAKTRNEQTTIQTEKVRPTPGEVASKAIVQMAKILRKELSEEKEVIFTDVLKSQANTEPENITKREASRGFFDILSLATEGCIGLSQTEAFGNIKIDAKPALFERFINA
The experiment can be described thus: co-purification (StrepTrap affinity, then size exclusion); four cohesin subunits co-expressed in Sf9; captured by 2xStrepII on Scc1, eluted with desthiobiotin, Superose 6 Increase in HNTG (25 mM Hepes pH 8.0, 150 mM NaCl). (In general: Size exclusion chromatography separates by hydrodynamic size, large species first.)

B1: Scc2 (co-immunoprecipitation of Fig. 2E) (protein, UniProt Q04002 1-1493)
chain: MSYPGKDKNIPGRIIEALEDLPLSYLVPKDGLAALVNAPMRVSLPFDKTIFTSADDGRDVNINVLGTANSTTSSIKNEAEKERLVFKRPSNFTSSANSVDYVPTNFLEGLSPLAQSVLSTHKGLNDSINIEKKSEIVSRPEAKHKLESVTSNAGNLSFNDNSSNKKTKTSTGVTMTQANLAEQYLNDLKNILDIVGFDQNSAEIGNIEYWLQLPNKKFVLTTNCLTKLQMTIKNITDNPQLSNSIEITWLLRLLDVMVCNIKFSKSSLKMGLDDSMLRYIALLSTIVLFNIFLLGKNDSNLHRESYIMEPVNFLSDLIESLKILTIEYGSLKIEFDTFQEALELLPKYIRNGPFLDDNVTAKLVYIFSDLLMNNDIEATTNIQFQSFWDNVKRISSDILVSLFGSFDQQRGFIIEELLSHIEKLPTKRIQKKLRKVGNQNIYITDFTFTLMSMLENINCYSFCNQMKDIAPENIDLLKNEYKKQEEFLFNIVEHINDTILERFFKNPSALRYVIDNFVQDLLLLISSPQWPVTEKILSSLLKRLLSVYSPSMQVSANIETICLQLIGNIGSTIFDIKCSTRDHEDNNLIKMINYPETLPHFFKSFEECIAYNETIKCRRSATRFLWNLRLGTILILEEYTKDAKEQIITVDNELKKILEQIKDGGLGPELENREADFSTIKLDYFSILHAFELLNLYDPYLKLILSLLAKDKIKLRSTAIKCLSMLASKDKVILSNPMVKETIHRRLNDSSASVKDAILDLVSINSSYFEFYQQINNNYNDDSIMVRKHVLRINEKMYDETNDIVTKVYVIARILMKIEDEEDNIIDMARLILLNRWILKVHEVLDQPEKLKEISSSVLLVMSRVAIMNEKCSQLFDLFLNFYLLNKEAHSKEAYDKITHVLTILTDFLVQKIVELNSDDTNEKNSIVDKQNFLNLLAKFADSTVSFLTKDHITALYPYMVSDEKSDFHYYILQVFRCTFEKLANFKQKFLYDLETTLLSRLPKMNVREIDEAMPLIWSVATHRHDTARVAKACSSCLSHLHPYINKANNEEAAIVVDGKLQRLIYLSTGFARFCFPKPSNDKIAFLQEGETLYEHITKCLLVLSKDKITHVIRRVAVKNLTKLCGNHPKLFNSRHVLHLLDKEFQSDQLDIKLVILESLYDLFLLEERKSVRNTGVNSTLSSNSILKKKLLKTNRVEFANDGVCSALATRFLDNILQLCLLRDLKNSLVAIRLLKLILKFGYTNPSHSIPTVIALFASTSQYIRHVAYELLEDLFEKYETLVFSSLSRGVTKAIHYSIHTDEKYYYKHDHFLSLLEKLCGTGKKNGPKFFKVLKRIMQSYLDDITDLTSTNSSVQKSIFVLCTNISNITFVSQYDLVSLLKTIDLTTDRLKEVIMDEIGDNVSSLSVSEEKLSGIILIQLSLQDLGTYLLHLYGLRDDVLLLDIVEESELKNKQLPAKKPDISKFSAQLENIEQYSSNGKLLTYFRKHVKDT
B1: the binding entry in experiment [1] and in experiment [2] was “binds” throughout.

B2: recombinant Scc3 (protein, UniProt P40541 1-1150)
chain: MTAVRRSTRIRTKSQVIEEDYDDEQNTSAQHVESDKITAKTQHEEEEEQDTGESEESSSEDDYEDQDDDDYVDTATAKRKSRKRKPKSASNTSSKRQKKKPTSAQKSAVSHAPAYHRSKKDQDQYLEIAKDFQPTELFDILSTSEDVSIEELLREWLETYSENRDKFLQEFINLLLNCCGSVARVEDHDVHSNESSNETIGEIQLLFQRQKLHEFYLLISKENKKRKNFKMGPLYQNFAEFMTKLLEVANDLQLLYVESDEDDTQIVTGNLVLDLLTWLSSFSVCKIRCFRYISTLTLYLFQDYLTQQAVNLEKNYLAKLSKQLSLEEKKKRPNNKTLEKLESTIAETQGSKVVIDSIIDNIVKLCFVHRYKDVSDLIRSESMLHLSIWIKNYPEYFLKVTFLKYFGWLLSDNSVSVRLQVTKILPHLIIQNHNSKSTDNSAIRQVFERFKTKILEVAIRDVNLDVRIHSIQVLTEASSLGYLDDSEILIISSLMFDEEFDPFKTSSFNKRSKFLSTVAKFLARVIKEKFDEFIKTHEDLPKEVDGLEVGPVVQVGIFIKILNDSLIYHLKDCAEVDSRTKIRMLTQAAEFLSPYISTHLKTICNLLISDTESNELIQKLQNSANNNSDDEDVDDEELDITPLFPIDRNSTILYLNVFHGLCAGANNPKIQTKDSVKEIVLPLFYDLLNAASIESADILCPLLESFITFSLDDWISIGYETELKKITDKTIKAFMDSTIGNSKVDMKYDIFAKFIHHIHHFEKKELQEKFLNQIATLKIHLKKFLQEKMDPNNSRDDYKDLTCSLYELYINKLTILGRDYPIEVDEELLQLFLNNFVSRIPIMFQDFDDSTAQEINFKMLVLLATWNLEKWREIIEKVRDYENSISKDLRSVWKPIAAIIGRLNTLVISLAATNETFENINSLFYLKWSACTSLMDIIVAIKIFELKLPADATTWRYSMSEQFPFYLHDNASKVLLKIFLYLESLFAKQVDVQLERVADEDANLNDLPETGFFENIETEFLLFTVKLKGLMKLNILDERFASRVALNKEKLGPLFKKIVDDTIMENPEPNKKNIQKAKSNQTQREKAPLQPNSERETDHANTENNDPDIPMTIDLEPIEESSQNNSELAPIEEHPTVVDAIDNSDEITQD
In the case of B2, the binding entry in experiment [3] is listed as “binds”.
